Measurements as given in PubChem BioAssay AID485281 (National Center for Advancing Translational Sciences (NCATS), 2010).
In all, about 350,000 compounds went through this assay and about 260 (0.074%) were called active. Inconclusive results, whose numbers are uncertain, are shown with a selection of clear calls. Calls follow the shape of the dose curve; as a rule, active = well fitted inhibition curve with a large enough effect; inconclusive = small, poorly fitted or top-dose-only effect; inactive = no such curve, though single readings can be large or run the other way. Where the call is inconclusive, the potency comes from a doubtful curve fit.

biological target: Ferritin light chain (Equus caballus) (UniProt P02791); assay: qHTS Assay for Identification of Novel General Anesthetics; details: apoferritin/1-aminoanthracene competitive binding, fluorescence; activity change, negative = displacement: at 77.5 µM (top of the series); also: nearly all actives have a fitted effect of over 20% in size
Procedure, shortened: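 In PBS, apoferritin at 10 uM is loaded with 1-AMA from a 50% saturated solution. After 10 min of compound exposure at ambient temperature, reduced 535 nm fluorescence indicates probe displacement.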
% is scaled to controls: 0 for no effect and ±100 for the full control effect; potency is read from the fitted curve at half-maximal effect; tags tell the direction and shape of the fitted curve.

Chain of UniProt P02791 (P02791 whole entry, looked up): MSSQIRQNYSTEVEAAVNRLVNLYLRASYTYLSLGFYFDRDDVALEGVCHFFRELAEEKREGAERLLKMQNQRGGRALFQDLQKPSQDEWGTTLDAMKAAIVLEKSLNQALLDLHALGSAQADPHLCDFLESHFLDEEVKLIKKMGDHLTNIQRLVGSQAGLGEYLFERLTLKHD

Q: For `O=[N+]([O-])c1cc(Cl)ccc1N1CCCCC1`, which Potency is on record?
A: inconclusive: 22.4 µM [inhibitor, single point]

Q: For `COc1ccc(S(=O)(=O)Nc2ccc(N3CCOCC3)cc2)cc1Br`, which Potency is on record?
A: inconclusive: 39.8 µM [inhibitor, partial curve]

Q: For `COc1ccc(CCNC(=O)c2n[nH]c3ccccc23)cc1`, which “activity change, negative = displacement” value is on record?
A: inactive: -10.1%

Q: Which Potency does the source give for `Cc1cccc(Nc2nnc(SCC3CCCCO3)s2)c1` (stereo not drawn) here?
A: inconclusive: 44.7 µM [inhibitor, single point]

Q: `CCC/C(=N\NC(=O)CCC(=O)NCc1ccccc1)c1ccccc1` was tested. Which Potency did it give?
A: inconclusive: 28.2 µM [inhibitor, partial curve]

Q: For `OC(CNC1CCCC1)COc1ccc(-c2ccccc2)cc1` (stereo not drawn), which Potency is on record?
A: inconclusive: 15.8 µM [inhibitor, partial curve]

Q: How did the Potency turn out when `CCCCCN(C(=O)CCC(=O)OCC(=O)c1cccc(OC)c1)c1c(N)n(CCCC)c(=O)[nH]c1=O` was run?
A: inconclusive: 31.6 µM [inhibitor, partial curve]

Q: With `CN(CC(=O)Nc1ccc(OC(F)(F)F)cc1)C(=O)Cc1c(Cl)cccc1Cl` as the molecule, how does the Potency read?
A: inconclusive: 25.1 µM [inhibitor, partial curve]

Q: Which Potency does the source give for `Cc1nc(-n2nnc3ccccc32)c2c3c(sc2n1)CCCC3` here?
A: inconclusive: 12.6 µM [inhibitor, partial curve]

Q: How did the “activity change, negative = displacement” value turn out when `C=CCSc1nc2sc(C)c(C)c2c(=O)n1CC=C` was run?
A: inactive: -4.55%

Q: With `CC1CC(C)CN(c2ccc(C(=O)NCc3ccc4c(c3)OCO4)cc2[N+](=O)[O-])C1` (stereo not drawn) as the molecule, how does the Potency read?
A: inconclusive: 56.2 µM [inhibitor, partial curve]

Q: How did the “activity change, negative = displacement” value turn out when `O=C(c1cc2sccc2n1Cc1ccc(F)cc1)N1CCN(c2nc3ccccc3s2)CC1` was run?
A: inactive: -13.8%

Q: With `O=C1Nc2ccc([N+](=O)[O-])cc2C1(O)N1CCCCC1` (stereo not drawn) as the molecule, how does the Potency read?
A: inconclusive: 44.7 µM [inhibitor, partial curve]

Q: With `Cc1ccc(/C=C2\SC(=S)N(c3c(C)n(C)n(-c4ccccc4)c3=O)C2=O)cc1` as the molecule, how does the Potency read?
A: inconclusive: 10 µM [inhibitor, partial curve]

Q: Which Potency does the source give for `Cc1nn(C(=O)CNS(=O)(=O)c2ccccc2)c(C)c1Sc1ccc(Cl)cc1` here?
A: inconclusive: 39.8 µM [inhibitor, single point]

Q: Which Potency does the source give for `O=C(C1=C[C@@H](c2ccc(C(F)(F)F)cc2)C[C@@H](OCCCCO)O1)N1CCN(Cc2ccccc2)CC1` here?
A: inconclusive: 39.8 µM [inhibitor, single point]

Q: `C=CCN1C(=O)/C(=C/c2ccc(-c3ccc(F)cc3)o2)SC1=S` was tested. Which Potency did it give?
A: inconclusive: 25.1 µM [inhibitor, partial curve]

Q: For `COc1ccccc1CN=C1Nc2ccccc2CS1`, which Potency is on record?
A: inconclusive: 10 µM [inhibitor, partial curve]

Q: Which “activity change, negative = displacement” value does the source give for `COc1cccc(Nc2nc(N)c([N+](=O)[O-])c(NCc3ccccc3)n2)c1` here?
A: inactive: -19%

Q: With `O=C(COc1ccc2ccccc2c1)N/N=C/c1ccccn1` as the molecule, how does the Potency read?
A: inconclusive: 22.4 µM [inhibitor, partial curve]

Q: How did the Potency turn out when `CCCN1/C(=C(/C#N)C2=NS(=O)(=O)c3ccccc32)N(C)c2ccccc21` was run?
A: inconclusive: 31.6 µM [inhibitor, partial curve]

Q: `COc1cc(/C=C2/C(=O)NN(c3cccc(C)c3)C2=O)ccc1OC(=O)c1ccco1` was tested. Which “activity change, negative = displacement” value did it give?
A: inactive: -5.68%

Q: For `O=C(c1ccc2ccccc2c1)N1CCN(c2ccc([N+](=O)[O-])c(N3CCOCC3)c2)CC1`, which Potency is on record?
A: inconclusive: 31.6 µM [inhibitor, partial curve, poor fit]

Q: Which Potency does the source give for `NNC(=O)COc1ccc(C(F)(F)F)cc1` here?
A: inconclusive: 14.1 µM [inhibitor, partial curve]

Q: Which Potency does the source give for `CCOC(=O)C1CCCN(C(=O)c2cc(Nc3ccc(OC)c(OC)c3)nc3ccccc23)C1` (stereo not drawn) here?
A: inconclusive: 31.6 µM [inhibitor, partial curve]

Q: Which “activity change, negative = displacement” value does the source give for `COc1ccccc1Nc1ccc(Nc2ccccc2OC)nn1` here?
A: inactive: -7.92%

Q: Which “activity change, negative = displacement” value does the source give for `Cc1cc[n+](C2=C([O-])c3ccccc3C(=O)/C2=N\S(=O)(=O)c2cccs2)cc1C` here?
A: inactive: 1.77%

Q: Which Potency does the source give for `O=C(Cn1cc(C(=O)c2ccco2)c2ccccc21)NC1CCCC1` here?
A: inconclusive: 35.5 µM [inhibitor, partial curve]

Q: Which “activity change, negative = displacement” value does the source give for `CCc1ccc(S(=O)(=O)Nc2ccc(O)c3ccccc23)cc1` here?
A: inactive: 1.67%

Q: Which “activity change, negative = displacement” value does the source give for `COC(=O)c1ccc2nc(NC(=O)C(C)(C)C)sc2c1` here?
A: inactive: -15.6%

Q: `O=C(c1cccc(Oc2c(Cl)cccc2[N+](=O)[O-])c1)N1CCCCC1` was tested. Which Potency did it give?
A: inconclusive: 31.6 µM [inhibitor, partial curve]

Q: For `CCOc1cc(/C=C2\C(=O)N(Cc3ccc(C)cc3)C(C)=C2C(=O)OC)ccc1O`, which Potency is on record?
A: inconclusive: 39.8 µM [inhibitor, partial curve]

Q: How did the Potency turn out when `COc1ccc(Cc2c(O)nc(SCC(=O)NC34CC5CC(CC(C5)C3)C4)[nH]c2=O)cc1` was run?
A: inconclusive: 28.2 µM [inhibitor, partial curve]

Q: How did the Potency turn out when `CCC(=O)N(Cc1cc2ccccc2[nH]c1=O)C(C)C` was run?
A: inconclusive: 31.6 µM [inhibitor, partial curve]

Q: Which “activity change, negative = displacement” value does the source give for `Cc1ccc(-c2nnc(-c3ccccc3)o2)cc1` here?
A: inactive: -6.51%

Q: For `NNC(=O)Cc1cn(-c2ncc(C(F)(F)F)cc2Cl)c2ccccc12`, which Potency is on record?
A: inconclusive: 44.7 µM [inhibitor, partial curve]

Q: How did the Potency turn out when `Cc1ccc(S(=O)(=O)NCC(=O)OCc2ccccc2Br)cc1` was run?
A: inconclusive: 25.1 µM [inhibitor, partial curve]

Q: For `Cc1ccc(S(=O)(=O)NCCNc2ccc([N+](=O)[O-])cc2)cc1`, which Potency is on record?
A: inconclusive: 35.5 µM [inhibitor, partial curve]

Q: How did the “activity change, negative = displacement” value turn out when `Cc1ccc(NC(=O)/C=C/c2ccc(Cl)cc2)nc1` was run?
A: inactive: -5.76%

Q: How did the Potency turn out when `CCN(CC(=O)NC(=O)NC1CCCCC1)Cc1nc2ccccc2c(=O)[nH]1` was run?
A: inconclusive: 39.8 µM [inhibitor, single point]

Q: How did the Potency turn out when `O=C(COC(=O)c1cc(=O)[nH]c2ccccc12)Nc1cccc(S(=O)(=O)N2CCOCC2)c1` was run?
A: inconclusive: 28.2 µM [inhibitor, partial curve]

Q: For `Cc1c(NN=C(C#N)C#N)c(=O)n(-c2ccccc2)n1C`, which Potency is on record?
A: inconclusive: 2.24 µM [inhibitor, full curve]

Q: With `O=C(c1ccc(Cl)cc1Cl)N1CCc2ccccc21` as the molecule, how does the Potency read?
A: inconclusive: 25.1 µM [inhibitor, partial curve]
